Measurements from paper PMC2758594.
These are yes or no findings as the source states them, for the method shown. For some assays here: In cells and extracts the contact can be indirect. Some results given as binding are weak or reduced against the parent protein; the word gives no strength. For some assays here: Where a sequence is shown, tags or fusion partners need not be part of it. One block for each substance: values may come before it.

Chains of the proteins cited; added tags and fusions are not shown. Lines headed by an entry give the natural chain unless they say otherwise; changes in a name come on top. A line that says so, or that is headed by a name, gives the form on record, which may keep a tag or linker. Residues count along the entry.
Myc-MLCK_B (Q15746, residues 272-666): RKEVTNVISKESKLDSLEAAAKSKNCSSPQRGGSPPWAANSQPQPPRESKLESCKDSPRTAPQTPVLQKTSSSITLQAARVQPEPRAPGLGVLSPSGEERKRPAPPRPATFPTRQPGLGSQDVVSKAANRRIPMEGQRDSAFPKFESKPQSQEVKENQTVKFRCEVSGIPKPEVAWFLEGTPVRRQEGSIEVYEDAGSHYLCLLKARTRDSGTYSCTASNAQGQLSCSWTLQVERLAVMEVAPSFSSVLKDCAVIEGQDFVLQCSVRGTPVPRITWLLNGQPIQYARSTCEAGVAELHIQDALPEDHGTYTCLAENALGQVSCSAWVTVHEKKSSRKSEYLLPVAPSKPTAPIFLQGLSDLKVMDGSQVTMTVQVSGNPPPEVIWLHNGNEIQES
full-length long MLCK variant 2 (Q15746-2, form named): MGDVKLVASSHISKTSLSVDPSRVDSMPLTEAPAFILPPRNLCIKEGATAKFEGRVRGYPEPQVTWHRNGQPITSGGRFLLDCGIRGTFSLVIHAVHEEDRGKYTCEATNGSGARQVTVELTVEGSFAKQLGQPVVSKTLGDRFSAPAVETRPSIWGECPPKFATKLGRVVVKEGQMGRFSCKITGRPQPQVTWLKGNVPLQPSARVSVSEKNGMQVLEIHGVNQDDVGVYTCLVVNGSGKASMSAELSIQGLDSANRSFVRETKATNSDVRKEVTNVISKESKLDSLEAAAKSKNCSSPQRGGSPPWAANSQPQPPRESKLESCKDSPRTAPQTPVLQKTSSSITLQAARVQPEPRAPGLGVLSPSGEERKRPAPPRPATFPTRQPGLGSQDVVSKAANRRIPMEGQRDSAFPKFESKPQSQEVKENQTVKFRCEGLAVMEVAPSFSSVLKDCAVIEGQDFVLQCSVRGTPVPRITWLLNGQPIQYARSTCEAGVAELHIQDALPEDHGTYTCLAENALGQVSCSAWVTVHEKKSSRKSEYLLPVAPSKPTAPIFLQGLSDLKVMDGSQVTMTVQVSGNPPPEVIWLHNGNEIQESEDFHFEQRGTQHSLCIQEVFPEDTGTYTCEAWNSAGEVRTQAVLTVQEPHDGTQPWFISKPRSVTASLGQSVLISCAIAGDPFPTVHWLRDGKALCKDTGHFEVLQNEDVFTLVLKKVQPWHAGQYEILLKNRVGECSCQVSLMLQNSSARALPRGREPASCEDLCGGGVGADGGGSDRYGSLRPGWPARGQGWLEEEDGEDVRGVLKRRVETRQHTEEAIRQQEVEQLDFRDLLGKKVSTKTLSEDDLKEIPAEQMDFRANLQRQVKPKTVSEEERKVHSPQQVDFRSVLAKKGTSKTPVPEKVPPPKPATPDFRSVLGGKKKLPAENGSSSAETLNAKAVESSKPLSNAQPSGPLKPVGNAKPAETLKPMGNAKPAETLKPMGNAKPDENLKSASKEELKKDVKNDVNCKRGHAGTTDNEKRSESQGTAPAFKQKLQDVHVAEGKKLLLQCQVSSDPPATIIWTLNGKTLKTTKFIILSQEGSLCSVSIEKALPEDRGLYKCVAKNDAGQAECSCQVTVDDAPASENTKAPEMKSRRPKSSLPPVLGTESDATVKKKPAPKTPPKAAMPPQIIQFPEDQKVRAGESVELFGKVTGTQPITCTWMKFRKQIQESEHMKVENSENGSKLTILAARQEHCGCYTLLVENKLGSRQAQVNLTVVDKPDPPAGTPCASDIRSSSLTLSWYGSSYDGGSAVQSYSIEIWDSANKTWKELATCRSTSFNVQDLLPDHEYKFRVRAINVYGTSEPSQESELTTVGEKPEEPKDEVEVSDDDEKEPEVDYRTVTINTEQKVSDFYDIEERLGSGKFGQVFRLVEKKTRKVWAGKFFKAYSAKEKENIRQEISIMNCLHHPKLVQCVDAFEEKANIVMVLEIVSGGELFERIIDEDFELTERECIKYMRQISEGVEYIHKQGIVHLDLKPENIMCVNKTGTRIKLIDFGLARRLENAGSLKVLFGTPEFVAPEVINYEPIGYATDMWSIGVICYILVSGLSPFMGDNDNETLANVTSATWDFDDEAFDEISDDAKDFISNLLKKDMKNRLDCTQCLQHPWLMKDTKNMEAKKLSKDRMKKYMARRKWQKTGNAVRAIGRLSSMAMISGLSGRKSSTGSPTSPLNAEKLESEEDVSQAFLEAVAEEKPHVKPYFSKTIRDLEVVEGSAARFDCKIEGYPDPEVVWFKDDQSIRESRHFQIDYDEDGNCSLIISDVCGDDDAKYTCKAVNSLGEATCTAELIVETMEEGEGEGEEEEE
HA-MLCK (357-578) (Q15746-2, form named): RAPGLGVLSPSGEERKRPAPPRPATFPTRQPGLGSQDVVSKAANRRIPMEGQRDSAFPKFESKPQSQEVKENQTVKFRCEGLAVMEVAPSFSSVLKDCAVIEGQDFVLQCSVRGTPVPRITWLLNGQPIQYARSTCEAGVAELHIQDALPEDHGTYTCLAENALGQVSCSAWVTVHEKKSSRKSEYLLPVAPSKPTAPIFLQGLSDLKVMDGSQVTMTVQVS

How the values were obtained:
[1] = molecular target: T1, hARD1 expressed from pcARD1 (human) (UniProt P41227); test: co-IP; HT1080 cells co-transfected (4 µg each plasmid); IP with anti-GFP or anti-ARD1, blot with anti-HA or anti-MLCK, and cross-checked in reverse; in Fig. 2A cells treated with 1 µM ionomycin and 30 nM PMA for 8 h
T1 sequence: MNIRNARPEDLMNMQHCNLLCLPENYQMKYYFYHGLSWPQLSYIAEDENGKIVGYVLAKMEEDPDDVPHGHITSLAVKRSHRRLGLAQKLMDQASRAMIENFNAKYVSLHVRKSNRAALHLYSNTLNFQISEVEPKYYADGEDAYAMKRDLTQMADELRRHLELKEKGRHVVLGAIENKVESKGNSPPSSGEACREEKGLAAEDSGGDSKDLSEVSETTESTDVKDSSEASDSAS

[2] = molecular target: T2, human arrest defective-1 (hARD1), full-length, yeast two-hybrid bait (human) (UniProt P41227); test: two-hybrid; yeast two-hybrid screen of a human liver cDNA library with full-length hARD1 as bait
T2 sequence: T1 sequence

His-tagged hARD1 (human) = molecular target: T3, His-tagged hARD1 (human) (UniProt P41227); test: pull-down; extracted Myc-MLCK peptides (1 µg) incubated with purified His-hARD1 (0.5 µg) at 4°C for 2 h; His-ARD1 pulled down on nickel-affinity beads, blot with anti-Myc; only the target purified
T3 sequence: T1 sequence

[3] = molecular target: T1, hARD1 expressed from pcARD1 (human); test: co-IP; HEK293 cells co-transfected with 4 µg each of pcARD1 and one pcMyc-MLCK fragment; IP with anti-ARD1, blot with anti-Myc
[4] = molecular target: T1, hARD1 expressed from pcARD1 (human); test: condition: only cells treated with 20 µM BAPTA-AM for 3 h; co-IP; HT1080 cells co-transfected with pcARD1 and pcMLCK, treated with 20 µM BAPTA-AM for 3 h; IP with anti-ARD1
GFP-ARD1 (human) = molecular target: T4, GFP-ARD1 (human) (UniProt P41227); test: co-IP; HT1080 cells co-transfected (4 µg each plasmid); IP with anti-GFP or anti-ARD1, blot with anti-HA or anti-MLCK, and cross-checked in reverse; in Fig. 2A cells treated with 1 µM ionomycin and 30 nM PMA for 8 h
T4 sequence: T1 sequence

binding [1]: binds
Substance: full-length long MLCK variant 2 (from UniProt Q15746-2 1-1845)

binding [2]: binds
Substance: long MLCK transcript variant 2, aa. 357-578, two-hybrid library clone (from UniProt Q15746-2 357-578) (domain or fragment)

binding (His-tagged hARD1 (human)): binds
binding [3]: binds
Substance: Myc-MLCK_B (from UniProt Q15746-1 272-666) (domain or fragment)

binding [1]: binds
Substance: long MLCK variant 1 phosphorylated at Ser439 (from UniProt Q15746-1 1-1914)

binding [1]: binds
binding [4]: no binding
Substance: full-length long MLCK variant 1 (from UniProt Q15746-1 1-1914)

binding (GFP-ARD1 (human)): binds
Substance: HA-MLCK (357-578) (from UniProt Q15746-2 357-578) (domain or fragment)
